Substitutions are numbered along the chain they refer to. Results are given in words; binding and its absence hold for the method and conditions named. Binding seen in cells or lysates may run through a third protein. Some entries that bind do so weakly or less than the wild type. For part of these data: Sequences can lack the tags named with a protein.
What was measured:
T7-DHX34 (wild-type) = target: T1, T7-DHX34 (wild-type) (human, UniProt Q14147 1-1143); assay: co-IP; IP of transiently transfected T7-DHX34 (wild-type or mutants) from HEK293T lysate, in the presence of RNase A (Figure 3B); endogenous partners by western blot
T1 construct: Human DHX34, wild type; also called T7-tagged DHX34; shRNA-resistant (R) wild-type T7-DHX34; source: HEK293T, transiently transfected, in lysate; also purified on T7 agarose beads
T1 sequence (looked up): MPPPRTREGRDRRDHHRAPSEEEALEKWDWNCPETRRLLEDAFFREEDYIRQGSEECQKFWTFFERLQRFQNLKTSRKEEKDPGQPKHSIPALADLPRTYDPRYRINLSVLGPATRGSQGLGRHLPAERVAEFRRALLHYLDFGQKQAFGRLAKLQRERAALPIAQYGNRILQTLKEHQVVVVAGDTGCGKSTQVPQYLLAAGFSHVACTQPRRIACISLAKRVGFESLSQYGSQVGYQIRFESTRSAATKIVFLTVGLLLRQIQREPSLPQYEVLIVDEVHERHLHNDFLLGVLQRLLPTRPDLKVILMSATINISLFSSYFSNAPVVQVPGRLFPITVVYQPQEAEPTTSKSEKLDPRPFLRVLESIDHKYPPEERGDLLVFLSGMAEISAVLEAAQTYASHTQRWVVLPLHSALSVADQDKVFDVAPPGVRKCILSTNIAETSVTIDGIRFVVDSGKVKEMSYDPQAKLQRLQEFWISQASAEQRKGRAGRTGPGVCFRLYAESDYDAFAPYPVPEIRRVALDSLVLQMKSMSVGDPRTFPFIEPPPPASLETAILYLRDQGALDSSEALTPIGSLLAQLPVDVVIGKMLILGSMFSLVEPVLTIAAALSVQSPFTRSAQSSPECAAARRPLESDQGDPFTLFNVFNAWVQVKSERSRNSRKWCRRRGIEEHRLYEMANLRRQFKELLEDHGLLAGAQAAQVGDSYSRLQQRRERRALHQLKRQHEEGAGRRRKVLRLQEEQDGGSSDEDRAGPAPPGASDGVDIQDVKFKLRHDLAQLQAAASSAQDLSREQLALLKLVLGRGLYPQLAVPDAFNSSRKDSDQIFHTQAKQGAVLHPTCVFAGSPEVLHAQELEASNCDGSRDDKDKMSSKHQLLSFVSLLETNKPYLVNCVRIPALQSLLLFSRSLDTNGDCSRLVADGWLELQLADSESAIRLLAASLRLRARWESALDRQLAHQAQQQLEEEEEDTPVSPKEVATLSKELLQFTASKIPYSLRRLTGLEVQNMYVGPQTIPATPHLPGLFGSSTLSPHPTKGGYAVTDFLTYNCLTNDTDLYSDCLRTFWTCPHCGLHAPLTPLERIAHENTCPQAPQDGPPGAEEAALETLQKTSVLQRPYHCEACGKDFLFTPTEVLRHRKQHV

Amino acid sequences for entries named in this document (tags omitted).
UniProt Q96Q15: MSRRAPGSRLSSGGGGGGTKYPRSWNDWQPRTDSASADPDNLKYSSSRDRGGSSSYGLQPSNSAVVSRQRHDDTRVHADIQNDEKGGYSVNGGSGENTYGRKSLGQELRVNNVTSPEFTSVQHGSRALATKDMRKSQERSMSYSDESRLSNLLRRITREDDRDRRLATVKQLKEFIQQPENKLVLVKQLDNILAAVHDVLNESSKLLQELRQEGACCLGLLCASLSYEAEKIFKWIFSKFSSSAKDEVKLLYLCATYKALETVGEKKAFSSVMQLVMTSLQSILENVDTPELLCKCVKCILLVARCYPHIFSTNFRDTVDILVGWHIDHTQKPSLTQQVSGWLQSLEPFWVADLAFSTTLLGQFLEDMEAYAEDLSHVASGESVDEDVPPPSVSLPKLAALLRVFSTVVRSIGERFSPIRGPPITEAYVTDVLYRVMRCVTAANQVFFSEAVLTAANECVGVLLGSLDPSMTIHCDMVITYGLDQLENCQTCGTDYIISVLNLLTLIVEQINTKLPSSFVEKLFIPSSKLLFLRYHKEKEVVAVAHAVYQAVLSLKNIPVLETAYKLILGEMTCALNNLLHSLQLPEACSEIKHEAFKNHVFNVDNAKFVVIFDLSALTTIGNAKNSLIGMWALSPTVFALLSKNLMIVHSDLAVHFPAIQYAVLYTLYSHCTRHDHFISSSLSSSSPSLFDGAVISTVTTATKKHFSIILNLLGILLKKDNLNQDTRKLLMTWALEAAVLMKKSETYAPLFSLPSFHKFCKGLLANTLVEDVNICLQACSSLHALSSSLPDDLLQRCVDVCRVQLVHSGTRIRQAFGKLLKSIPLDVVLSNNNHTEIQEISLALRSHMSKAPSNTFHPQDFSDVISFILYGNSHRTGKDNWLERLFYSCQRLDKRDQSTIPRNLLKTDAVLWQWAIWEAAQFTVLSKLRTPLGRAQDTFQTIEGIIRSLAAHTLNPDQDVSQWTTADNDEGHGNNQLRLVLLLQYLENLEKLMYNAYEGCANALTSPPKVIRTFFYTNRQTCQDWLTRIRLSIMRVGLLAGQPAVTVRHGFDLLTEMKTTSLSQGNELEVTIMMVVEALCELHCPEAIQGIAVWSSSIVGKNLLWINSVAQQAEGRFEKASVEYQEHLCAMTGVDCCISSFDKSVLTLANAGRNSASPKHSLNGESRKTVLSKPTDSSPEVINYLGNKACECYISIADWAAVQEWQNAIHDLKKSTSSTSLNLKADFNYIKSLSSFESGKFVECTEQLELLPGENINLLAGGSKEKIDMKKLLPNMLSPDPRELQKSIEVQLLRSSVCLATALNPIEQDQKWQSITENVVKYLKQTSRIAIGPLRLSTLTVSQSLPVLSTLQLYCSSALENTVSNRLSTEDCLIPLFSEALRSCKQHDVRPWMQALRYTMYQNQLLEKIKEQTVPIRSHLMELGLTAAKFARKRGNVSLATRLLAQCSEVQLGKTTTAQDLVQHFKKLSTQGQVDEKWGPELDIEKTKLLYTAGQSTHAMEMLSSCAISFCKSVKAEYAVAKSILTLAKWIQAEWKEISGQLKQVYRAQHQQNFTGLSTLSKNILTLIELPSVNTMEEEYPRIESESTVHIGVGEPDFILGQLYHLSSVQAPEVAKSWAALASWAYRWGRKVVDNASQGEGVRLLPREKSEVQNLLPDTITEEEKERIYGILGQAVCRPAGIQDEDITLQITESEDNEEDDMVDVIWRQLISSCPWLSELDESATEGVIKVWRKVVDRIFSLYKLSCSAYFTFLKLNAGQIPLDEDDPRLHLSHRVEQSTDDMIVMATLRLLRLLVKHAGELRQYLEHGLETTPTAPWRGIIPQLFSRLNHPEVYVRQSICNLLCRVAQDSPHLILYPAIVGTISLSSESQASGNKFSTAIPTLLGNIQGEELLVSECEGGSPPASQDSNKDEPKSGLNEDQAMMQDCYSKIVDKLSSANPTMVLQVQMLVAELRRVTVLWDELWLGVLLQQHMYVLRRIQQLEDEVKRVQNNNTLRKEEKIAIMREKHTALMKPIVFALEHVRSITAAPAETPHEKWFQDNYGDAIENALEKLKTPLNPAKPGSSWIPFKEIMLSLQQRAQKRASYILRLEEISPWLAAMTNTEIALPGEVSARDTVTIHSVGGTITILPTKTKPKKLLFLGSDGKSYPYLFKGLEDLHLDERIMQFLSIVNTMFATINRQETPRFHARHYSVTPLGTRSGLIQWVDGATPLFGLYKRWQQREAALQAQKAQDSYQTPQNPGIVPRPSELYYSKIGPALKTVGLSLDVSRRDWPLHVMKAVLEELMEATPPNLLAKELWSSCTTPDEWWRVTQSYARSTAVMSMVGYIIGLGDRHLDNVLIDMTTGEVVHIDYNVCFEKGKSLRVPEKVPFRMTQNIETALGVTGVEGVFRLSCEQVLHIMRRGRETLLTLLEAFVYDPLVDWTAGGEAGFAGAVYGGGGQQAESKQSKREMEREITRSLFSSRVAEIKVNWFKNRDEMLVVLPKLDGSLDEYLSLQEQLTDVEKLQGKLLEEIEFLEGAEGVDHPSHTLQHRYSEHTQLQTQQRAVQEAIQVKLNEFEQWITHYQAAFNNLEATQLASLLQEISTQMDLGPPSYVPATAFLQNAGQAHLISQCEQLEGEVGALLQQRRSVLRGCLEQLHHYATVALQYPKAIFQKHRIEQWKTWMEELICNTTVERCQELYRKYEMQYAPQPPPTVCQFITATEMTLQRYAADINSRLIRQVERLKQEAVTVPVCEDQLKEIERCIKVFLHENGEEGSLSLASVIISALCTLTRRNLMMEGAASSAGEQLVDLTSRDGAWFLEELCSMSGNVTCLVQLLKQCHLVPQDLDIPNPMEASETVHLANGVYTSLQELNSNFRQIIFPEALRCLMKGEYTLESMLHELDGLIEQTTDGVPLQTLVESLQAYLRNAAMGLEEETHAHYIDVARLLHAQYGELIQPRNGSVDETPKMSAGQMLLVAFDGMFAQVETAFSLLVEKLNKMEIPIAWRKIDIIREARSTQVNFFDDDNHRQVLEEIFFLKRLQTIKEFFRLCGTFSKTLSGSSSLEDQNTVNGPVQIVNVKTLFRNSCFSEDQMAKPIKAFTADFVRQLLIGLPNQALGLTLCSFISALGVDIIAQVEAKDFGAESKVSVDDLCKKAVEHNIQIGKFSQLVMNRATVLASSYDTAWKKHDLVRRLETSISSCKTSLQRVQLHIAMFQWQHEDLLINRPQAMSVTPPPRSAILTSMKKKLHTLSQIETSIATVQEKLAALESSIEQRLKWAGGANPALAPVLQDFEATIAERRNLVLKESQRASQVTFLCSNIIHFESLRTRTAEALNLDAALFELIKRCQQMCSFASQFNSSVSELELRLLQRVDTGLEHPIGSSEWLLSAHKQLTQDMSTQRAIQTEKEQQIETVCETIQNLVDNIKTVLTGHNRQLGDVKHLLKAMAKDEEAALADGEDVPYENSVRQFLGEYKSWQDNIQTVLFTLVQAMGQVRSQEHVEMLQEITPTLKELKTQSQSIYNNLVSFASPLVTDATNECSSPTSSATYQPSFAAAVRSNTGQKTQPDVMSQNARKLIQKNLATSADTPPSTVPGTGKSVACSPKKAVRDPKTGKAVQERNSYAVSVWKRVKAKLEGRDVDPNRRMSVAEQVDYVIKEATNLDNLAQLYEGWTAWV

T7-DHX34 K191S (human) = target: T2, T7-DHX34 K191S (human) (UniProt Q14147); assay: as above
T2 sequence: T1 sequence (looked up) with K191S

FLAG-DHX34 (human) = target: T3, FLAG-DHX34 (human) (UniProt Q14147); assay: co-IP; anti-FLAG IP of transiently transfected FLAG-DHX34 from HEK293T lysate, in the absence or presence of RNase A; endogenous partners by western blot
T3 sequence: T1 sequence (looked up)

binding (T7-DHX34 (wild-type)): binds
binding (T7-DHX34 K191S (human)): binds
binding (FLAG-DHX34 (human)): binds
Substance: SMG1 (from UniProt Q96Q15 1-3661)
